The BET-seq Pho4 binding data (Le et al. 2018)
Some of the results follow. These are noisy estimates, calculated here from bound and input reads.

What follows are sequences tested against T1, Pho4 (S. cerevisiae) (UniProt P07270) (assay: relative binding free energy (BET-seq); higher = weaker binding). Details: reference: library average.
T1 sequence: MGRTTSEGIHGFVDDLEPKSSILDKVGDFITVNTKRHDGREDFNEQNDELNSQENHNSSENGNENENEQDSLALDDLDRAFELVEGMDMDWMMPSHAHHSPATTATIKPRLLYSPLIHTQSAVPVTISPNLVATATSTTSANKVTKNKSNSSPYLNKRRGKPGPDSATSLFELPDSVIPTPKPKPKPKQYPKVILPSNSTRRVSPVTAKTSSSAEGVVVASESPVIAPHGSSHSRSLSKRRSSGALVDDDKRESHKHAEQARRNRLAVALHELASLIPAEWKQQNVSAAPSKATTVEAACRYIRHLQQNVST

| Sequence | relative binding free energy |
| --- | --- |
| ATTAACACGTGTCGGG | 0.09 kcal/mol |
| GATAGCACGTGCGGGC | -0.04 kcal/mol |
| TATTACACGTGGTTTA | 0.14 kcal/mol |
| TTCGACACGTGTGGAG | 0.21 kcal/mol |
| TTACTCACGTGGGCGT | 0.11 kcal/mol |
| AGTTACACGTGTCTGT | 0.18 kcal/mol |
| ATTGACACGTGTAATG | 0.18 kcal/mol |
| GGGGGCACGTGTGTGC | 0.02 kcal/mol |
| TGCTGCACGTGGAAGG | 0.04 kcal/mol |
| GATCCCACGTGGTGGG | -0.04 kcal/mol |
| GGTTCCACGTGCGGTG | 0.03 kcal/mol |
| TTTATCACGTGTATCG | 0.01 kcal/mol |
| GGTTTCACGTGGAGAT | 0.3 kcal/mol |
| GTCGCCACGTGGTGTT | -0.09 kcal/mol |
| TCAGGCACGTGTTTTT | -0.04 kcal/mol |
| ACTAGCACGTGAAGGT | 0.15 kcal/mol |
| GTGGCCACGTGCGTGG | -0.09 kcal/mol |
| TCGTACACGTGGTGGT | -0.01 kcal/mol |
| TTTTGCACGTGGGGCA | -0.11 kcal/mol |
| GTGAGCACGTGATATA | 0.06 kcal/mol |
| TTTATCACGTGGTACG | 0.13 kcal/mol |
| CGTGTCACGTGTACAG | 0.11 kcal/mol |
| TTTGGCACGTGTAGTC | 0.11 kcal/mol |
| TCAAGCACGTGGGGTG | -0.31 kcal/mol |
| CGCCGCACGTGTGGGG | 0.02 kcal/mol |

| Sequence | relative binding free energy |
| --- | --- |
| CAGTTCACGTGAGTTA | 0.49 kcal/mol |
| ATTTACACGTGTGAAT | 0.29 kcal/mol |
| TGACGCACGTGGCGTT | -0.1 kcal/mol |
| TCAGGCACGTGGTTAA | -0.22 kcal/mol |
| TTGCACACGTGATGTT | 0.23 kcal/mol |
| GAATGCACGTGGGTAT | -0.07 kcal/mol |
| AGAGGCACGTGGTTAT | -0.07 kcal/mol |
| AATACCACGTGGTTGT | 0.05 kcal/mol |
| TTGGACACGTGGTGCT | -0.01 kcal/mol |
| GGCGACACGTGGGAGG | 0.09 kcal/mol |
| ACTGACACGTGGTGGG | -0.13 kcal/mol |
| ACCGGCACGTGGTGGA | -0.08 kcal/mol |
| AGTCGCACGTGGTTGA | -0.2 kcal/mol |
| GTGGCCACGTGGCCTG | -0.1 kcal/mol |
| GTTTACACGTGGGAGG | 0.09 kcal/mol |
| TGTCACACGTGTATTA | 0.11 kcal/mol |
| TTGGTCACGTGTCCGA | 0.14 kcal/mol |
| GGAGGCACGTGACAGG | 0 kcal/mol |
| TTATGCACGTGCGGTT | -0.07 kcal/mol |
| AGTGTCACGTGTCGTT | 0.17 kcal/mol |
| GAGTACACGTGTGTAT | 0.16 kcal/mol |
| AGTATCACGTGGCTTG | 0.07 kcal/mol |
| TGTCGCACGTGTAGAG | -0.07 kcal/mol |
| TTGTACACGTGACAGG | 0.02 kcal/mol |
| TGATACACGTGGAAGT | 0.22 kcal/mol |

| Sequence | relative binding free energy |
| --- | --- |
| TGTTGCACGTGAGCGG | -0.01 kcal/mol |
| ATCGACACGTGATTGG | 0.28 kcal/mol |
| AGTGACACGTGAGTTA | 0.2 kcal/mol |
| TTGGCCACGTGTGGTG | 0.03 kcal/mol |
| TATCGCACGTGAGTGT | 0.05 kcal/mol |
| CCGGGCACGTGGGGCA | -0.32 kcal/mol |
| AGGAGCACGTGGATTA | 0.03 kcal/mol |
| TAATTCACGTGTATTA | 0.09 kcal/mol |
| GATTTCACGTGAGTTC | 0.47 kcal/mol |
| AGTATCACGTGATCTG | 0.23 kcal/mol |
| TGGTCCACGTGTGAGT | 0.07 kcal/mol |
| GGTATCACGTGCTTAT | 0.26 kcal/mol |
| TGAAGCACGTGTGGGC | -0.02 kcal/mol |
| AGTTACACGTGGCTTT | 0.13 kcal/mol |
| TGGCTCACGTGAAGGG | 0.17 kcal/mol |
| GTTTTCACGTGCTGGC | 0.41 kcal/mol |
| GAGCGCACGTGTTGGA | 0.09 kcal/mol |
| GGTGCCACGTGTTGTA | -0.04 kcal/mol |
| TGTGTCACGTGTGGGC | 0.09 kcal/mol |
| TAGCGCACGTGCGTTG | -0.22 kcal/mol |
| AGAAGCACGTGGGTTT | -0.18 kcal/mol |
| AAGGTCACGTGGTGAG | 0.14 kcal/mol |
| ACTTTCACGTGGGGTG | 0.11 kcal/mol |
| GTCGGCACGTGATGTT | 0.1 kcal/mol |
| GGGGTCACGTGCGCGC | -0.02 kcal/mol |

| Sequence | relative binding free energy |
| --- | --- |
| TGATGCACGTGCAATG | 0.15 kcal/mol |
| GAGAGCACGTGGGTGG | -0.08 kcal/mol |
| ATCAACACGTGATGGT | 0.18 kcal/mol |
| TAAGACACGTGGGGGC | -0.07 kcal/mol |
| GGTGGCACGTGGCTTC | -0.19 kcal/mol |
| GGTGTCACGTGATGGG | 0.26 kcal/mol |
| GGAGTCACGTGGATAG | 0.08 kcal/mol |
| CTTGGCACGTGGTAAA | -0.12 kcal/mol |
| ACTGGCACGTGATGTA | -0.04 kcal/mol |
| GTGGACACGTGGTCGG | -0.01 kcal/mol |
| ATGTTCACGTGCGTAT | 0.29 kcal/mol |
| TGTCACACGTGAGTAT | 0.27 kcal/mol |
| TGGGTCACGTGAGACG | 0.33 kcal/mol |
| ATTGGCACGTGGTGAT | -0.1 kcal/mol |
| TTATGCACGTGTTGTG | -0.03 kcal/mol |
| TTTAGCACGTGGGGAT | -0.15 kcal/mol |
| TGACTCACGTGGTAGG | 0.09 kcal/mol |
| ATTTACACGTGATTCT | 0.25 kcal/mol |
| TTAATCACGTGGATAT | 0.12 kcal/mol |
| GGGGGCACGTGCGGAG | -0.21 kcal/mol |
| GAGAGCACGTGTCTGG | -0.05 kcal/mol |
| AGTAACACGTGTTAGA | 0.04 kcal/mol |
| GAGGACACGTGGTTGG | 0.1 kcal/mol |
| GGTTTCACGTGAGATT | 0.38 kcal/mol |
| TTTTGCACGTGGGTCA | -0.12 kcal/mol |

| Sequence | relative binding free energy |
| --- | --- |
| GTGTGCACGTGGTGAC | -0.03 kcal/mol |
| GTGGCCACGTGAATTG | 0.25 kcal/mol |
| GTTAACACGTGTTTCG | 0.09 kcal/mol |
| GATGTCACGTGCTGGA | 0.2 kcal/mol |
| GAGTTCACGTGGGCTG | 0.16 kcal/mol |
| GGATACACGTGATGGT | 0.29 kcal/mol |
| AGGGTCACGTGGTTAA | -0.04 kcal/mol |
| GGAGTCACGTGGCGTG | 0.07 kcal/mol |
| ATGCGCACGTGTTGTT | -0.12 kcal/mol |
| GACGGCACGTGGGTGG | -0.07 kcal/mol |
| GTAAGCACGTGTGTCG | -0.1 kcal/mol |
| ATGTTCACGTGGCGAT | 0.3 kcal/mol |
| GGTGACACGTGGAGCT | 0.05 kcal/mol |
| TTTCGCACGTGTCTTT | 0.05 kcal/mol |
| GGTAACACGTGATATG | 0.03 kcal/mol |
| AGCGTCACGTGGCGGA | -0.09 kcal/mol |
| CGGGTCACGTGTGGCG | 0.12 kcal/mol |
| ATGTCCACGTGTGTTA | 0.13 kcal/mol |
| GGGGCCACGTGCTGTG | -0.11 kcal/mol |
| GTGGGCACGTGCCGTT | -0.14 kcal/mol |
| GTGTACACGTGCAGTT | -0.06 kcal/mol |
| GTGGCCACGTGCATGG | -0.11 kcal/mol |
| GGCGGCACGTGGGAAG | -0.03 kcal/mol |
| TCAGGCACGTGGTTTA | -0.19 kcal/mol |
| ATAGGCACGTGTGTGC | -0.16 kcal/mol |

| Sequence | relative binding free energy |
| --- | --- |
| GTTGGCACGTGGAAAA | 0.14 kcal/mol |
| TGGAACACGTGTGCGG | 0.01 kcal/mol |
| GTAGACACGTGAGTTG | 0.27 kcal/mol |
| TGATTCACGTGCTGGA | 0.22 kcal/mol |
| AAAGTCACGTGCTGTG | -0.01 kcal/mol |
| TATCGCACGTGGAGTT | -0.01 kcal/mol |
| ACGGTCACGTGATATG | 0.14 kcal/mol |
| CTTGGCACGTGTGGGA | -0.03 kcal/mol |
| CAGGTCACGTGTGAAT | 0.27 kcal/mol |
| TTGCACACGTGTGTGT | 0.14 kcal/mol |
| TTTGTCACGTGTCTTT | -0.04 kcal/mol |
| AAAGGCACGTGGGTGT | -0.23 kcal/mol |
| AGGCGCACGTGTTGTT | -0.03 kcal/mol |
| TTCGCCACGTGTGGAG | 0.09 kcal/mol |
| TGGAGCACGTGCGGTG | -0.09 kcal/mol |
| TGTGCCACGTGTGTGC | -0.13 kcal/mol |
| GAGGACACGTGTTCGT | 0.15 kcal/mol |
| TTCTGCACGTGGGAGG | -0.08 kcal/mol |
| GGTCTCACGTGGTAGT | 0.25 kcal/mol |
| TTTAACACGTGCTGTT | -0.04 kcal/mol |
| GTATACACGTGGTGTC | -0.03 kcal/mol |
